Measured values: US11261230B2, “Synthetic somatostatin receptor ligands” (TEL HASHOMER MEDICAL RESEARCH INFRASTRUCTURE AND SERVICES …, priority 2014, dated 2022)
At least one peptide structure holds a part that was inferred or is arguable (an end, a ring closure or a residue). *1 amine or outer side, *2 acyl side, *3 side chain or, on linkers, in order; H or OH if unused. Where a SMILES comes first, the peptide text is derived from it. Bridges are numbered along the chain shown (N, C = ends). [ ]: non-standard residue; d: D form. The star is where a group is joined. FITC = O=C1OC2(c3ccc(O)cc3Oc3cc(O)ccc32)c2ccc(NC(=S)*)cc21; N(2-mercaptoethyl)Gly = O=C(CN(CCS[*:3])[*:1])[*:2]; Orn = NCCC[C@H](N)C(=O)O; GABA = NCCCC(=O)O

Experiments:
human SSTR1 = biological target: T1, human SSTR1 (Homo sapiens, UniProt P30872); test: Binding to transfected HEK cells expressing a single SSTRx subtype, FACS; details: for Adjusted binding affinity SSTR1: Table 2 normalized according to the highest binding affinity of that compound; for Binding affinity to SSTR1 relative to Compound 1: Table 2 normalized to Compound 1 (=100)
T1 construct: expressed in transfected cells; host or cells: HEK-293, transient transfection, pcDNA 3.1
T1 sequence (P30872 whole entry): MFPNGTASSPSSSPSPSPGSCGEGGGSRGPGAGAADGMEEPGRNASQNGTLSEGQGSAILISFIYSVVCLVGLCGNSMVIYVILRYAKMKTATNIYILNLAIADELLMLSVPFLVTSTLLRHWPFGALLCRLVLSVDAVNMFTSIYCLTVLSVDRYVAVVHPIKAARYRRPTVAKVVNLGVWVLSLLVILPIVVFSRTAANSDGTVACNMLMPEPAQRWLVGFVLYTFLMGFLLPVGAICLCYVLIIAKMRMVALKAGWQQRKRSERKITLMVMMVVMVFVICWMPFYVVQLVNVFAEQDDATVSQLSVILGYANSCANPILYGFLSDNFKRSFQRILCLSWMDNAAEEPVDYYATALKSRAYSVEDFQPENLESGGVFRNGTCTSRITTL
Method: (§1) The affinity of compounds 1-16 to each of the five SSTRx was tested using an in vitro model of transfected cell lines (HEK—human embryonic kidney), each expressing a single human SSTRx subtype. Biological activity assessment of the compounds to define a specific affinity to each subtype was performed by FACS and fluorescence imaging methods.
(§2) Human SSTRx were expressed in the cells by transient transfection. Each SSTR was expressed separately, creating five different cell lines using human gene transcript.
(§3) The transfection process is illustrated in FIG. 1. The transient transfection process was carried out before each experiment. Briefly, HEK cells were cultured in standard cell growth conditions. For testing, the cells were transferred into 96-well plates. The tested compounds were dissolved in DMSO and then diluted in a buffer solution to a final DMSO concentration of 5% as a composition according to the teachings herein. Various amounts of the thus-prepared compositions were added to the cells in medium in the 96-well plates and allowed to incubate for between 1 and 24 hours. Binding was determined using fluorescent microscopy and FACS.
(§4) Qualitative assessment of binding efficiency was done by visual inspection and digital photography using an inverted fluorescent microscope. Quantitative assessment was done using FACS.
(§5) HEK-293 cells (human embryonic kidney) were grown in Dulbecco's modified Eagle's medium (DMEM) supplemented with 4 mM glutamine, 10% fetal bovine serum (FBS) and 100 units/ml penicillin/streptomycin at 37° C./5% carbon dioxide. One day prior to transfection, the cells were trypsinized, counted and plated at a density of 3×10^5 per 35 mm diameter dish. Until 70% confluency, cells were transiently transfected with the pcDNA 3.1 vector bearing the coding region for the human SSTR human somatostatin receptor subtypes SSTR1-SSTR5. Transfections were carried out with JetPei transfection reagent (Polyplus-transfection, NY, USA) according to the manufacturer's recommendation. Briefly, 2 micrograms of plasmid DNA and 6 microliter of JetPei transfection reagent were used for each transfection. Each of the components were resuspended in 100 microliter of 150 mM NaCl, mixed and incubated for 25 minutes at room temperature and after incubation added to cells.
(§6) Cells were then seeded in a 96-well flat-bottom microplate (Costar, Corning, N.Y.) at a concentration of 5×10^4 cells/well. Twelve hours later, the supernatant was removed and replaced with fresh DMEM containing various (in the nM range) concentrations of tested compounds 1-16. The cells were incubated for additional time intervals ranging from 0.5-24 hr. At the end of the incubation period, supernatant was discarded and the cells were washed twice with cold PBS. The plates were examined using IX81 inverted microscope (Olympus, Japan) equipped with […] digital camera. Additionally, a FACS assay was used for quantitative analysis.
(§7) Quantitative assessment of binding affinity of Compounds 1-16 was performed by FACS in the transfected HEK cell model.
(§8) Quantitatively, specific binding affinity was assessed as the percentage of double stained [(GR=green and red indicating transfection)/(R is total red) less (G is green indicating unspecific binding)]: specific binding affinity=[GR/R−G]

human SSTR2 = biological target: T2, human SSTR2 (Homo sapiens, UniProt P30874); test: as above; details: for Adjusted binding affinity SSTR2: Table 2 normalized according to the highest binding affinity of that compound; for Binding affinity to SSTR2 relative to Compound 1: Table 2 normalized to Compound 1 (=100); for Binding affinity for SSTR2 compared with Compound 1 (in words): conclusion from Table 2-B
T2 construct: expressed in transfected cells; host or cells: HEK-293, transient transfection, pcDNA 3.1
T2 sequence (P30874 whole entry): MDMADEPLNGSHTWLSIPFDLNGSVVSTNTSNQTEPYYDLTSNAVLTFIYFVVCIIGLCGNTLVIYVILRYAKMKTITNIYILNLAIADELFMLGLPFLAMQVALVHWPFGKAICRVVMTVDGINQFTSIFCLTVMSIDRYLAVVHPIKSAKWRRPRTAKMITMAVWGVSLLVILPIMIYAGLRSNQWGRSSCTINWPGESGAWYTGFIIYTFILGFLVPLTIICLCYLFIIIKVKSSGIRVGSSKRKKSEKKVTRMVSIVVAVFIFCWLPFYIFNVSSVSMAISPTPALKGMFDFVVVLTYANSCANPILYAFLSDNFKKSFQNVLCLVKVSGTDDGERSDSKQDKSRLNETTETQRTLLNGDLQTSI
Method: as §1, §2, §3, §4, §5, §6, §7, §8

human SSTR3 = biological target: T3, human SSTR3 (Homo sapiens, UniProt P32745); test: as above; details: for Adjusted binding affinity SSTR3: Table 2 normalized according to the highest binding affinity of that compound; for Binding affinity to SSTR3 relative to Compound 1: Table 2 normalized to Compound 1 (=100)
T3 construct: expressed in transfected cells; host or cells: HEK-293, transient transfection, pcDNA 3.1
T3 sequence (P32745 whole entry): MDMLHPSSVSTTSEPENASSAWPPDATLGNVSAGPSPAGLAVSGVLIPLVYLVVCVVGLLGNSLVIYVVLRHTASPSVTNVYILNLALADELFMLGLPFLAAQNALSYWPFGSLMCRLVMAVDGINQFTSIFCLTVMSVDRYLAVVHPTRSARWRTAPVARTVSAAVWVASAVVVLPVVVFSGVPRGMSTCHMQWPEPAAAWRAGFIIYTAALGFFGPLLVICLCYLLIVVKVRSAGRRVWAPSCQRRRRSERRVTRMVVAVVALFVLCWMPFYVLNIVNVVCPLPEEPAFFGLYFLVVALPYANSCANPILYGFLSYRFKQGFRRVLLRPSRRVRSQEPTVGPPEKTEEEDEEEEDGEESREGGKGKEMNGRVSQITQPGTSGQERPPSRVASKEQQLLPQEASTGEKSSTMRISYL
Method: as §1, §2, §3, §4, §5, §6, §7, §8

human SSTR4 = biological target: T4, human SSTR4 (Homo sapiens, UniProt P31391); test: as above; details: for Adjusted binding affinity SSTR4: Table 2 normalized according to the highest binding affinity of that compound; for Binding affinity to SSTR4 relative to Compound 1: Table 2 normalized to Compound 1 (=100)
T4 construct: expressed in transfected cells; host or cells: HEK-293, transient transfection, pcDNA 3.1
T4 sequence (P31391 whole entry): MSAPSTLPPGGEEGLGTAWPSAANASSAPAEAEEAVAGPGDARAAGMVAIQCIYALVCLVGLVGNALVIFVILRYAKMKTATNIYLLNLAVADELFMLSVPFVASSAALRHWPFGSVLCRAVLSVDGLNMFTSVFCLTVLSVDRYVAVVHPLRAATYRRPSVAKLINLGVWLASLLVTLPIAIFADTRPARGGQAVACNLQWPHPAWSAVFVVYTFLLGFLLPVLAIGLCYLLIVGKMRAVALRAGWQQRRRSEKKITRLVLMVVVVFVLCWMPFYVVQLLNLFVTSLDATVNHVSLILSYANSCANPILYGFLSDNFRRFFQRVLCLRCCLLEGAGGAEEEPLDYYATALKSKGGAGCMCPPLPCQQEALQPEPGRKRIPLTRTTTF
Method: as §1, §2, §3, §4, §5, §6, §7, §8

human SSTR5 = biological target: T5, human SSTR5 (Homo sapiens, UniProt P35346); test: Binding to transfected HEK cells expressing a single SSTRx subtype, FACS and fluorescence microscopy; details: for Adjusted binding affinity SSTR5: Table 2 normalized according to the highest binding affinity of that compound; for Binding affinity to SSTR5 relative to Compound 1: Table 2 normalized to Compound 1 (=100)
T5 construct: expressed in transfected cells; host or cells: HEK-293, transient transfection, pcDNA 3.1
T5 sequence (P35346 whole entry): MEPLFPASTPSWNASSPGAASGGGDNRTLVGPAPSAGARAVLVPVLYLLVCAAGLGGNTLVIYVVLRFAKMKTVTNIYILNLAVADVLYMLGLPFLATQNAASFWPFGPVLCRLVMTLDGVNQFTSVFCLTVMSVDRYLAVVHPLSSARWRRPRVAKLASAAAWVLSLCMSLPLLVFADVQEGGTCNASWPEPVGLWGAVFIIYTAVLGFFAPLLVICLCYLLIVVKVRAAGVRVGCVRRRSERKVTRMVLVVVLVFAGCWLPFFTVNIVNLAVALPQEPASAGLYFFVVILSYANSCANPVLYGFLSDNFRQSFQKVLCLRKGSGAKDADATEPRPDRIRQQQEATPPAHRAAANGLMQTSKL
Method: as §1, §2, §3, §4, §5, §6, §7, §8

PANC-1 tumors = test: In vivo biodistribution in PANC-1 xenograft mice, Maestro fluorescence imaging of harvested tissue; details: 0.3 ml into the tail vein, 1 day after administration, average of three mice
[1] = FACS, transfected HEK, specific binding affinity = percentage double stained [GR/R−G], 0 = no binding detected

SMILES	Adjusted binding affinity SSTR1 (human SSTR1)	Binding affinity to SSTR1 relative to Compound 1 (human SSTR1)	Adjusted binding affinity SSTR2 (human SSTR2)	Binding affinity to SSTR2 relative to Compound 1 (human SSTR2)	Adjusted binding affinity SSTR3 (human SSTR3)	Binding affinity to SSTR3 relative to Compound 1 (human SSTR3)	Adjusted binding affinity SSTR4 (human SSTR4)	Binding affinity to SSTR4 relative to Compound 1 (human SSTR4)	Adjusted binding affinity SSTR5 (human SSTR5)	Binding affinity to SSTR5 relative to Compound 1 (human SSTR5)	Tumor total signal (PANC-1 tumors) [count/s]	other results
C[C@@H](O)[C@@H]1NC(=O)[C@H](CCCCN)NC(=O)[C@@H](Cc2c[nH]c3ccccc23)NC(=O)[C@H](Cc2c[nH]c3ccccc23)NC(=O)[C@H](Cc2ccccc2)NC(=O)[C@@H](NC(=O)[C@@H](Cc2ccccc2)NC(=O)CCCNC(=S)Nc2ccc3c(c2)C(=O)OC32c3ccc(O)cc3Oc3cc(O)ccc32)CSSCCN(CC(N)=O)C(=O)[C@H](Cc2ccccc2)NC1=O [Compound 1, FITC-GABA-DPhe-Cys*-Phe-Trp-DTrp-Lys-Thr-Phe-GlyS2*-NH2, reference compound]	0.11	100	0.23	100	0.60	100	0.79	100	1	100	130	Internalization into transfected SSTR5 over-expressing HEK cells (human SSTR5; qualitative microscopic binding assay, FIGS. 4A-4C): Selective internalization; Tumor/pancreas ratio of signal (PANC-1 tumors): 150; Tumor/spleen ratio of signal (PANC-1 tumors): 298
C[C@@H](O)[C@@H]1NC(=O)[C@H](CCCCN)NC(=O)[C@@H](Cc2c[nH]c3ccccc23)NC(=O)[C@H](Cc2c[nH]c3ccccc23)NC(=O)[C@H](Cc2ccc(O)cc2)NC(=O)[C@@H](NC(=O)[C@@H](Cc2ccccc2)NC(=O)CCCNC(=S)Nc2ccc3c(c2)C(=O)OC32c3ccc(O)cc3Oc3cc(O)ccc32)CSSCCN(CC(N)=O)C(=O)[C@H](Cc2ccccc2)NC1=O [Compound 4, FITC-GABA-D-Phe-Cys-Tyr-Trp-D-Trp-Lys-Thr-Phe-GlyS2] ({FITC-GABA}-[dF]CYW[dW]KTF[N(2-mercaptoethyl)Gly]-NH2; disulfide 2-9)	0.13	100	0.33	123	1	141	0.33	36	0.40	4	380	Binding affinity for SSTR2 compared with Compound 1 (in words) (human SSTR2): greater binding affinity than Compound 1; Binding affinity for SSTR3 compared with Compound 1 (in words) (human SSTR3; conclusion from Table 2-B): greater binding affinity than Compound 1; Tumor/liver ratio of signal (PANC-1 tumors): 103; Tumor/pancreas ratio of signal (PANC-1 tumors): 662; Tumor/spleen ratio of signal (PANC-1 tumors): 560
C[C@@H](O)[C@@H]1NC(=O)[C@H](CCCN)NC(=O)[C@@H](Cc2c[nH]c3ccccc23)NC(=O)[C@H](Cc2ccccc2)NC(=O)[C@@H](NC(=O)[C@H](CCCNC(=N)N)NC(=O)[C@@H](Cc2ccccc2)NC(=O)CCCNC(=S)Nc2ccc3c(c2)C(=O)OC32c3ccc(O)cc3Oc3cc(O)ccc32)CSSCCN(CC(N)=O)C(=O)[C@H](Cc2ccccc2)NC1=O [Compound 5, FITC-GABA-D-Phe-Arg-Cys-Phe-D-Trp-Orn-Thr-Phe-GlyS2] ({FITC-GABA}-[dF]RCF[dW][Orn]TF[N(2-mercaptoethyl)Gly]-NH2; disulfide 3-9)	0	0	0.33	15	1	18	0.33	4	0	0	–	–
C[C@@H](O)[C@@H]1NC(=O)[C@H](CCCN)NC(=O)[C@@H](Cc2c[nH]c3ccccc23)NC(=O)[C@H](Cc2ccc(O)cc2)NC(=O)[C@@H](NC(=O)[C@@H](Cc2ccccc2)NC(=O)CCCNC(=S)Nc2ccc3c(c2)C(=O)OC32c3ccc(O)cc3Oc3cc(O)ccc32)CSSCCN(CC(N)=O)C(=O)[C@H](Cc2ccccc2)NC1=O [Compound 7, FITC-GABA-D-Phe-Cys-Tyr-D-Trp-Orn-Thr-Phe-GlyS2] ({FITC-GABA}-[dF]CY[dW][Orn]TF[N(2-mercaptoethyl)Gly]-NH2; disulfide 2-8)	0	0	0.50	15	1	12	0.75	7	0.50	4	–	–
C[C@@H](O)[C@@H]1NC(=O)[C@H](CCCCN)NC(=O)[C@@H](Cc2c[nH]c3ccccc23)NC(=O)[C@H](Cc2ccccc2)NC(=O)[C@H](CCCNC(=N)N)NC(=O)[C@@H](NC(=O)CCCNC(=S)Nc2ccc3c(c2)C(=O)OC32c3ccc(O)cc3Oc3cc(O)ccc32)CSSCCN(CC(N)=O)C(=O)[C@H](Cc2ccccc2)NC1=O [Compound 9, FITC-GABA-Cys-Arg-Phe-D-Trp-Lys-Thr-Phe-GlyS2] ({FITC-GABA}-CRF[dW]KTF[N(2-mercaptoethyl)Gly]-NH2; disulfide 1-8)	0	0	0.50	154	0.70	82	0.75	67	1	70	290	Binding affinity for SSTR2 compared with Compound 1 (in words) (human SSTR2): greater binding affinity than Compound 1
C[C@@H](O)[C@@H]1NC(=O)[C@H](CCCCN)NC(=O)[C@@H](Cc2c[nH]c3ccccc23)NC(=O)[C@H](Cc2c[nH]c3ccccc23)NC(=O)[C@H](Cc2ccccc2)NC(=O)[C@@H](NC(=O)[C@@H](Cc2ccccc2)NC(=O)CCCNC(=S)Nc2ccc3c(c2)C(=O)OC32c3ccc(O)cc3Oc3cc(O)ccc32)CCSSCCN(CC(N)=O)C(=O)[C@H](Cc2ccccc2)NC1=O [Compound 11, FITC-GABA-D-Phe-H-Cys-Phe-Trp-D-Trp-Lys-Thr-Phe-GlyS2]	–	–	–	–	–	–	0.71	129	1	144	–	Relative binding affinity SSTR4 (human SSTR4; [1]): 29; Binding affinity for SSTR4 compared with Compound 1 (in words) (human SSTR4; conclusion from Table 2-B): greater binding affinity than Compound 1; Relative binding affinity SSTR5 (human SSTR5; [1]): 41; Binding affinity for SSTR5 compared with Compound 1 (in words) (human SSTR5; conclusion from Table 2-B): greater binding affinity than Compound 1
C[C@@H](O)[C@@H]1NC(=O)[C@H](CCCCCN)NC(=O)[C@@H](Cc2c[nH]c3ccccc23)NC(=O)[C@H](Cc2c[nH]c3ccccc23)NC(=O)[C@H](Cc2ccccc2)NC(=O)[C@@H](NC(=O)[C@@H](Cc2ccccc2)NC(=O)CCCNC(=S)Nc2ccc3c(c2)C(=O)OC32c3ccc(O)cc3Oc3cc(O)ccc32)CSSCCN(CC(N)=O)C(=O)[C@H](Cc2ccccc2)NC1=O [Compound 16, FITC-GABA-D-Phe-Cys-Phe-Trp-D-Trp-HomoLys-Thr-Phe-GlyS2]	0	0	0.21	38	1	71	0.38	20	0.58	25	–	–
